The text below walks through data of publication doi:10.1101/2022.06.07.495003 (bioRxiv, 2022).

This data set deals with the molecule itself. Put plainly: fluorescence intensity fluctuation.

B1: EphA2-eYFP (receptor)
chain: [sequence of about 500 residues omitted]IGGVAVGVVLLLVLAGVGFFIHRRRKNQRARQSPEDVYFSKSEQLKPLKTYVDPHTYEDPNQAVLKFTTEIHPSCVTRQKVIGAGEFGEVYKGMLKTSSGKKEVPVAIKTLKAGYTEKQRVDFLGEAGIMGQFSHHNIIRLEGVISKYKPMMIITEYMENGALDKFLREKDGEFSVLQLVGMLRGIAAGMKYLANMNYVHRDLAARNILVNSNLVCKVSDFGLSRVLEDDPEATYTTSGGKIPIRWTAPEAISYRKFTSASDVWSFGIVMWEVMTYGERPYWELSNHEVMKAINDGFRLPTPMDCPSAIYQLMMQCWQQERARRPKFADIVSILDKLIRAPDSLKTLADFDPRVSIRLPSTSGSEGVPFRTVSEWLESIKMQQYTEHFMAAGYTAIEKVVQMTNDDIKRIGVRLPGHQKRIAYSLLGLKDQVNTVGIPI
Consider B1, for which the “stoichiometry N” value is 2.
